Results taken from the BET-seq Pho4 binding data (Le et al. 2018).
The list shows a part of the results. These are noisy estimates, calculated here from bound and input reads.

Each sequence was assayed against T1, Pho4 (S. cerevisiae) (UniProt P07270) (assay: relative binding free energy (BET-seq); higher = weaker binding). Details: reference: library average.
T1 sequence: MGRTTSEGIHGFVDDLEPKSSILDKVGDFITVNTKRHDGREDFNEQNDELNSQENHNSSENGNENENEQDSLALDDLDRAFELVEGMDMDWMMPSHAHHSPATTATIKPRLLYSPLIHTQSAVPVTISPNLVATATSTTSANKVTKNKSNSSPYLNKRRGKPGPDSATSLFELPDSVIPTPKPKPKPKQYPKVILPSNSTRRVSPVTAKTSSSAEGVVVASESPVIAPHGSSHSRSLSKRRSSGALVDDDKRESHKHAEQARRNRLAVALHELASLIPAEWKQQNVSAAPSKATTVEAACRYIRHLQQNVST

Q: For TAAGCCACGTGTGGTA, which “relative binding free energy” value is on record?
A: -0.04 kcal/mol

Q: With GTGTACACGTGCGGTT as the sequence, how does the “relative binding free energy” value read?
A: 0.01 kcal/mol

Q: With AGTGACACGTGGGAGG as the sequence, how does the “relative binding free energy” value read?
A: -0.12 kcal/mol

Q: With CTTTACACGTGGGAAT as the sequence, how does the “relative binding free energy” value read?
A: 0.12 kcal/mol

Q: GGTGGCACGTGAGAAA was tested. Which “relative binding free energy” value did it give?
A: 0.2 kcal/mol

Q: Which “relative binding free energy” value does the source give for GTATTCACGTGATTTT here?
A: 0.31 kcal/mol

Q: TGGATCACGTGCGGGT was tested. Which “relative binding free energy” value did it give?
A: 0.07 kcal/mol

Q: With AAATACACGTGCGGTT as the sequence, how does the “relative binding free energy” value read?
A: 0.1 kcal/mol

Q: Which “relative binding free energy” value does the source give for GCTGGCACGTGTCAGG here?
A: 0.04 kcal/mol

Q: With TATTTCACGTGAAATT as the sequence, how does the “relative binding free energy” value read?
A: 0.4 kcal/mol

Q: Which “relative binding free energy” value does the source give for GCGTGCACGTGAGGGA here?
A: 0.32 kcal/mol

Q: With TAGCCCACGTGGGTGG as the sequence, how does the “relative binding free energy” value read?
A: -0.12 kcal/mol

Q: Which “relative binding free energy” value does the source give for TTTATCACGTGAAGTG here?
A: 0.45 kcal/mol

Q: With TATGACACGTGTGGAC as the sequence, how does the “relative binding free energy” value read?
A: 0.09 kcal/mol

Q: How did the “relative binding free energy” value turn out when AGCGACACGTGGGAGT was run?
A: 0 kcal/mol

Q: Which “relative binding free energy” value does the source give for TGAGGCACGTGGGTAA here?
A: -0.13 kcal/mol

Q: For TATTCCACGTGTGGAT, which “relative binding free energy” value is on record?
A: 0.13 kcal/mol

Q: With GATTTCACGTGTTACT as the sequence, how does the “relative binding free energy” value read?
A: 0.3 kcal/mol

Q: For TTGTACACGTGGTAGA, which “relative binding free energy” value is on record?
A: -0.05 kcal/mol

Q: Which “relative binding free energy” value does the source give for CGTGGCACGTGGTATT here?
A: -0.21 kcal/mol

Q: Which “relative binding free energy” value does the source give for ATAGTCACGTGTGATT here?
A: 0.03 kcal/mol

Q: TGGATCACGTGCAGTT was tested. Which “relative binding free energy” value did it give?
A: 0.25 kcal/mol

Q: How did the “relative binding free energy” value turn out when GATTTCACGTGTGATA was run?
A: 0.28 kcal/mol

Q: For GTGTACACGTGCGGCG, which “relative binding free energy” value is on record?
A: -0.06 kcal/mol

Q: For AGCGTCACGTGATTGA, which “relative binding free energy” value is on record?
A: 0.27 kcal/mol

Q: How did the “relative binding free energy” value turn out when AACGTCACGTGAGGGA was run?
A: 0.14 kcal/mol

Q: Which “relative binding free energy” value does the source give for ATTGTCACGTGGCTTC here?
A: 0.14 kcal/mol

Q: For GTGGGCACGTGAGGTC, which “relative binding free energy” value is on record?
A: 0.18 kcal/mol

Q: How did the “relative binding free energy” value turn out when GGGAACACGTGTGTGT was run?
A: 0.03 kcal/mol

Q: For TCTCACACGTGGTGGG, which “relative binding free energy” value is on record?
A: -0.02 kcal/mol

Q: Which “relative binding free energy” value does the source give for GTCTGCACGTGGAGAT here?
A: 0.17 kcal/mol

Q: With GATTTCACGTGCAGGT as the sequence, how does the “relative binding free energy” value read?
A: 0.43 kcal/mol

Q: With GTTTGCACGTGGATGT as the sequence, how does the “relative binding free energy” value read?
A: 0.12 kcal/mol

Q: Which “relative binding free energy” value does the source give for CAGTTCACGTGTGAGT here?
A: 0.37 kcal/mol

Q: ATTGCCACGTGGGTTA was tested. Which “relative binding free energy” value did it give?
A: -0.18 kcal/mol

Q: Which “relative binding free energy” value does the source give for GGTGTCACGTGGGTAC here?
A: -0.08 kcal/mol

Q: For TGGATCACGTGATGTC, which “relative binding free energy” value is on record?
A: 0.23 kcal/mol

Q: AATATCACGTGGCATG was tested. Which “relative binding free energy” value did it give?
A: 0.07 kcal/mol

Q: How did the “relative binding free energy” value turn out when TCCTTCACGTGTATTT was run?
A: 0.23 kcal/mol

Q: AGGATCACGTGTGGAG was tested. Which “relative binding free energy” value did it give?
A: 0.18 kcal/mol

Q: How did the “relative binding free energy” value turn out when GAAGGCACGTGGAGGA was run?
A: 0.04 kcal/mol

Q: Which “relative binding free energy” value does the source give for GTTAACACGTGTTTGC here?
A: -0.04 kcal/mol

Q: With CAGATCACGTGATGGT as the sequence, how does the “relative binding free energy” value read?
A: 0.35 kcal/mol

Q: With GTGAGCACGTGATCGG as the sequence, how does the “relative binding free energy” value read?
A: 0.21 kcal/mol

Q: How did the “relative binding free energy” value turn out when TATAACACGTGAGGGC was run?
A: 0.2 kcal/mol

Q: How did the “relative binding free energy” value turn out when AGTTACACGTGAGATT was run?
A: 0.4 kcal/mol

Q: Which “relative binding free energy” value does the source give for AACTACACGTGTAGGT here?
A: 0.1 kcal/mol

Q: TTAGACACGTGTCGGC was tested. Which “relative binding free energy” value did it give?
A: 0.14 kcal/mol

Q: How did the “relative binding free energy” value turn out when ATTTGCACGTGTATAT was run?
A: -0.05 kcal/mol

Q: For TAGAACACGTGTGCGT, which “relative binding free energy” value is on record?
A: 0.04 kcal/mol

Q: How did the “relative binding free energy” value turn out when TGCCACACGTGGCGGT was run?
A: 0.17 kcal/mol

Q: With GGTTGCACGTGAGCAT as the sequence, how does the “relative binding free energy” value read?
A: 0.11 kcal/mol

Q: Which “relative binding free energy” value does the source give for ATTAACACGTGGGTTG here?
A: -0.11 kcal/mol

Q: Which “relative binding free energy” value does the source give for CATGCCACGTGTGGTT here?
A: -0.08 kcal/mol

Q: Which “relative binding free energy” value does the source give for TGATCCACGTGTTATG here?
A: 0.09 kcal/mol

Q: How did the “relative binding free energy” value turn out when CGAGTCACGTGGGTAG was run?
A: 0.04 kcal/mol

Q: How did the “relative binding free energy” value turn out when CGGGGCACGTGTCATG was run?
A: -0.17 kcal/mol

Q: GTGGTCACGTGGAAAT was tested. Which “relative binding free energy” value did it give?
A: 0.11 kcal/mol

Q: How did the “relative binding free energy” value turn out when TGAGGCACGTGATTTT was run?
A: 0.07 kcal/mol

Q: How did the “relative binding free energy” value turn out when TAAGCCACGTGGTTTG was run?
A: -0.09 kcal/mol

Q: For CTTAACACGTGGTAGG, which “relative binding free energy” value is on record?
A: -0.05 kcal/mol

Q: For ATTTGCACGTGCATTG, which “relative binding free energy” value is on record?
A: -0.21 kcal/mol

Q: With ATGTTCACGTGGTGCA as the sequence, how does the “relative binding free energy” value read?
A: 0.11 kcal/mol

Q: TTGAACACGTGGTGTA was tested. Which “relative binding free energy” value did it give?
A: -0.1 kcal/mol

Q: Which “relative binding free energy” value does the source give for TTTTTCACGTGCAAAG here?
A: 0.26 kcal/mol

Q: With AGTGGCACGTGAAAGC as the sequence, how does the “relative binding free energy” value read?
A: 0.21 kcal/mol

Q: How did the “relative binding free energy” value turn out when GTTCGCACGTGGTGGA was run?
A: -0.07 kcal/mol

Q: With AGTTGCACGTGAAAGA as the sequence, how does the “relative binding free energy” value read?
A: 0.15 kcal/mol

Q: With AGTTCCACGTGGTTAG as the sequence, how does the “relative binding free energy” value read?
A: 0.02 kcal/mol

Q: For GCTTGCACGTGCGGGT, which “relative binding free energy” value is on record?
A: 0.04 kcal/mol

Q: With GGATACACGTGGTAAG as the sequence, how does the “relative binding free energy” value read?
A: 0.05 kcal/mol

Q: With ACGTTCACGTGGGCGG as the sequence, how does the “relative binding free energy” value read?
A: 0.11 kcal/mol

Q: Which “relative binding free energy” value does the source give for CTTTGCACGTGAGGCT here?
A: 0.09 kcal/mol

Q: For ATACGCACGTGGGGTG, which “relative binding free energy” value is on record?
A: -0.27 kcal/mol

Q: With TGATCCACGTGGTGTT as the sequence, how does the “relative binding free energy” value read?
A: -0.05 kcal/mol

Q: For CAGGTCACGTGGTATT, which “relative binding free energy” value is on record?
A: 0.07 kcal/mol

Q: TTTTTCACGTGGTATT was tested. Which “relative binding free energy” value did it give?
A: 0.27 kcal/mol

Q: Which “relative binding free energy” value does the source give for CGTTTCACGTGGGTCT here?
A: 0.01 kcal/mol

Q: TCTGGCACGTGGAAGT was tested. Which “relative binding free energy” value did it give?
A: -0.06 kcal/mol

Q: How did the “relative binding free energy” value turn out when TAATTCACGTGATTGG was run?
A: 0.3 kcal/mol

Q: GGGGACACGTGGGACT was tested. Which “relative binding free energy” value did it give?
A: -0.05 kcal/mol

Q: With TGCGTCACGTGGGGAT as the sequence, how does the “relative binding free energy” value read?
A: 0.04 kcal/mol

Q: Which “relative binding free energy” value does the source give for TTGGTCACGTGTGGCA here?
A: 0.16 kcal/mol

Q: Which “relative binding free energy” value does the source give for GCACGCACGTGGGTGG here?
A: -0.22 kcal/mol

Q: How did the “relative binding free energy” value turn out when TTTTACACGTGTGTCA was run?
A: 0.09 kcal/mol

Q: Which “relative binding free energy” value does the source give for TTGGACACGTGTGAGG here?
A: 0.1 kcal/mol

Q: Which “relative binding free energy” value does the source give for ATAATCACGTGTGTGA here?
A: 0.01 kcal/mol

Q: For AATTGCACGTGGAAGG, which “relative binding free energy” value is on record?
A: 0.03 kcal/mol

Q: CAGAGCACGTGTGGTT was tested. Which “relative binding free energy” value did it give?
A: -0.11 kcal/mol

Q: For AGGTGCACGTGATATG, which “relative binding free energy” value is on record?
A: 0.15 kcal/mol

Q: For TATGGCACGTGAAAGG, which “relative binding free energy” value is on record?
A: 0.14 kcal/mol

Q: GGGGTCACGTGGGTCA was tested. Which “relative binding free energy” value did it give?
A: -0.06 kcal/mol

Q: How did the “relative binding free energy” value turn out when TTACTCACGTGGTAGG was run?
A: 0.15 kcal/mol

Q: With GTTGCCACGTGCGTTT as the sequence, how does the “relative binding free energy” value read?
A: -0.17 kcal/mol

Q: GGGACCACGTGGGAGG was tested. Which “relative binding free energy” value did it give?
A: -0.07 kcal/mol

Q: With AATTTCACGTGATTGG as the sequence, how does the “relative binding free energy” value read?
A: 0.34 kcal/mol

Q: CGTTGCACGTGTAGGG was tested. Which “relative binding free energy” value did it give?
A: -0.04 kcal/mol

Q: Which “relative binding free energy” value does the source give for GTATGCACGTGTGGGC here?
A: 0.04 kcal/mol

Q: AGTATCACGTGGTGGA was tested. Which “relative binding free energy” value did it give?
A: 0.18 kcal/mol

Q: AGTAGCACGTGCTGGA was tested. Which “relative binding free energy” value did it give?
A: -0.04 kcal/mol

Q: ATGTTCACGTGGGATC was tested. Which “relative binding free energy” value did it give?
A: 0.26 kcal/mol

Q: How did the “relative binding free energy” value turn out when CGTGGCACGTGGGCAG was run?
A: -0.31 kcal/mol

Q: How did the “relative binding free energy” value turn out when AGGTTCACGTGAGTTA was run?
A: 0.37 kcal/mol

Q: CGGAACACGTGGTGAG was tested. Which “relative binding free energy” value did it give?
A: 0.11 kcal/mol

Q: For AGGCCCACGTGAGGGT, which “relative binding free energy” value is on record?
A: 0.15 kcal/mol

Q: GTTAACACGTGTGCAT was tested. Which “relative binding free energy” value did it give?
A: 0.11 kcal/mol

Q: How did the “relative binding free energy” value turn out when GTATTCACGTGGGCTA was run?
A: 0.16 kcal/mol

Q: How did the “relative binding free energy” value turn out when GTTATCACGTGAGTTC was run?
A: 0.26 kcal/mol

Q: For GTGGGCACGTGGTCAT, which “relative binding free energy” value is on record?
A: -0.12 kcal/mol

Q: How did the “relative binding free energy” value turn out when CTAAACACGTGTGGGT was run?
A: -0.04 kcal/mol

Q: GTAATCACGTGGTAAT was tested. Which “relative binding free energy” value did it give?
A: -0.04 kcal/mol

Q: Which “relative binding free energy” value does the source give for TTAATCACGTGGTGCG here?
A: 0.06 kcal/mol

Q: With GTAGTCACGTGCAGTG as the sequence, how does the “relative binding free energy” value read?
A: 0.15 kcal/mol

Q: With GTTGACACGTGCGGTT as the sequence, how does the “relative binding free energy” value read?
A: 0.09 kcal/mol

Q: For GGCTACACGTGTTGTT, which “relative binding free energy” value is on record?
A: 0.17 kcal/mol
